To fix the notation:
B1: LINE1-mini (parent)
chain: GGCAGAGCUCAACACAGCGUGGCAAAGUGGCUGUGGCUAGACUGCC

Read counts are not given, so values of variants with three or more changes are uncertain.

The variants in the data set derive from B1. The data set is described as follows: self-cleavage, relative activity (ratio to wild type); higher = more cleavage; in vitro, sequencing; the parent is a self-cleaving ribozyme.
For the variant G1U G5C G40C, the self-cleavage worked out at 0.01.

As to G1U G27U G30U C37A, the self-cleavage is 0.05.

As to G2A C3U C8G, the self-cleavage came to 0.07. In the case of G2A C10U U20G C42G, the self-cleavage is 0.06. Next, G1U G2C A6G C18U U38A: 0.01; G2A C13A A26G: 0.47; G2A C10A G17U C37U: 0.04. Next, G2A C10U C15G U34A: 0.06. For G2A C8G A12G C18A G22C, the self-cleavage was found to be 0.05. For G2A C10A C23U U38C, the self-cleavage was 0.07. On to G1U U28G C45U, for which the self-cleavage worked out at 0.46. Next, G1U G5A C15A U20C C31G: 0.04; G1U U9A C15U: 0.05. In the case of G1U G2A C45U, the self-cleavage amounted to 1.37. Then G1U G36U C46G, with 0.05. Next, G1U G7U U28G C45U: 0.02.

For the variant G1U G17C G22C A41U, the self-cleavage was 0.02. Next, G1U G5U A14G G27C U28C G30U U32A A39U G44A: 0; G2A C8G U9C: 0.04; G2A A6G U9C A25C G30U U38C: 0.01. For G1U G17A G21C C45A, the self-cleavage turned out to be 0.05. For G1U G5U G29U G40U, the self-cleavage worked out at 0.02.

For the variant G2A C13A A25U C31G G35C A39G, the self-cleavage worked out at 0.08. Take G2A A26C C31U: the self-cleavage was 0.11. Next, G1U G36U A39C C46A: 0.05; G2A C10A C18A U20A G22C G36C C37U A41U: 0.01; G2A C15A G17U: 0.12. Then G2A A11U C15G, with 0.04. Take G2A G5C C18A U28A: the self-cleavage came out at 0.01. G2A A6C G27C G33U U34G G35A: the self-cleavage worked out at 0.06. Then G2A C13A G17C G40C A41U, with 0.1; and G2A A12C G19U G27C U28C G30A C31A, with 0.01. Then G1U G7U C10A C37U, with 0.01. Next, G2A A6U C8U U43A: 0.13; G2A C8G A14G: 0.09; G1U G19A A24U G35C C46G: 0.06. As to G2A C3A G33A G36A A39U, the self-cleavage worked out at 0.28. As for G1U G30C C46U, the self-cleavage came to 0.12. Then G1U G7U U34G A39U, with 0.03; and G1U U9C C37A, with 0.05; and G1U G5U A26U A39U, with 0.03.

For G1U U20A A25U, the self-cleavage is 0.2.

For G1U G2C C15G G33U, the self-cleavage was determined as 0.03. In the case of G1U G7C A11G G22U C37A A41G, the self-cleavage was 0. Next, G1U G7A G44U: 0.15; G2A G7A C13A A16C U43C: 0.33; G2A G5U G19C G36U: 0.19. Turning to G2A G5A C31U U32G G44A, the self-cleavage amounted to 0.23. As to G2A C3U G36C, the self-cleavage stood at 0.72. In the case of G1U G21C U38G C42A, the self-cleavage came to 0. Consider G2A C31G U34A, for which the self-cleavage was found to be 0.15. Then G1U G2U C3U U9G, with 0.14. With G1U G17U G27A G30C, the self-cleavage is 0.29. Next, G1U U32C U34A G36A U43A: 0.01; G2A A4C A24U C46A: 0.13; G2A A6U C10A C23A G40U: 0.01. On to G2A C13G A41U, for which the self-cleavage came to 0.16. Consider G2A A11U U43A, for which the self-cleavage turned out to be 0.06. In the case of G2A C10A U20A U38G, the self-cleavage was found to be 0.01. Next, G1U G17A G22C C42G: 0.05; G2A C15G G22C: 0.02.

Consider G2A A4G C18A, for which the self-cleavage worked out at 0.52. Take G2A A6G G35A: the self-cleavage was found to be 0.27. As for G2A C8U C18G G35C C45U, the self-cleavage turned out to be 0.14. Regarding G1U G2U U38C, the self-cleavage worked out at 0.03. Next, G1U G2C G22C U34C: 0.04; G1U U34G U38A A39C: 0.07. Next, G2A C18A U28A G30U G44U: 0.36; G1U G27C U32G: 0.29. Then G1U G7U C18U G21U, with 0.03; and G1U G5C U9A C13U G36U, with 0.03; and G1U G7U C13G G33A, with 0.08. As for G1U G21U U38G C45U, the self-cleavage turned out to be 0. As to G2A C8U G21A G36A, the self-cleavage was 1.86. Then G2A A4C U20A, with 0.15; and G2A C8A A24U, with 1.21; and G2A A11G A12U C23A C46U, with 0. Then G1U G21A G33U G35A G36A G40A C42U, with 0.03; and G2A G5A G44C, with 0.13. G2A G5C A11G: the self-cleavage is 0.04. Then G1U G2U A4G G7C G17A C31A C45A C46G, with 0.01; and G2A C23U C37U, with 0.07; and G2A A4G G5U C8G C42A, with 0.03. On to G1U G27C C31U, for which the self-cleavage is 0.01. Next, G2A A4U G30U: 0.42; G1U G7C U38C: 0.09; G1U U9A U34G: 0.01. Then G2A A11C A25U G35C, with 0.02. Next, G1U G2C A6U A41U: 0.04; G2A C13G A39U: 0.04. Regarding G1U G7C A14U, the self-cleavage amounted to 0.08. For G2A A4C C8A, the self-cleavage worked out at 0.66.

For G1U G2C G29A G30A G44U, the self-cleavage was found to be 0.01.

For the variant G2A A12U G33A U34G, the self-cleavage was 0.04. Regarding G1U U20C G29A, the self-cleavage is 0.43.

For G1U G5U C46U, the self-cleavage is 0.05. Regarding G2A A26G U32A, the self-cleavage was determined as 0.2.

On to G2A C42A C46A, for which the self-cleavage is 0.13. Then G1U G27C C31A G33A, with 0.03; and G2A C15U A39G, with 0.09. Turning to G2A A12G C15A G17C C37G, the self-cleavage stood at 0.02. Then G1U G36U G44A C45U, with 0; and G1U U20A A26U, with 0.14; and G1U G19C U20G A24U G33U, with 0.02. As for G2A A6G U20A C23U G30A, the self-cleavage stood at 0.05. With G1U G5U A41C C42A, the self-cleavage worked out at 0.04.

For the variant G2A A11U A16G G21A G36A, the self-cleavage came out at 0.09. As for G2A C10A A16U C37A U38A, the self-cleavage came out at 0.04.

On to G1U U20A G40U, for which the self-cleavage turned out to be 0.07. Then G2A C3G G7C U9C C18G U34G, with 0.02; and G2A G5A U43A, with 0.65; and G2A C15U C37G G40A, with 0.06. Next, G2A A4G A24C G27U C31A U38A: 0.71; G2A C31U A41C: 0.05. For the variant G1U U28G C46U, the self-cleavage stood at 0.29. Then G2A A25U G40U A41G, with 0.15. G1U G36C C37G: the self-cleavage was 0.01. Next, G2A C3U G40U: 0.21. Take G1U G2C C23U A26G: the self-cleavage stood at 0.05. Next, G2A A6G C13U C18A: 0.14; G1U G33C U34G G35U: 0.03; G2A C18A U34G A41C: 0.05. For the variant G2A C10A C15A U20A G36A, the self-cleavage is 0.05. Then G1U G2A G29A G35C U38C G40A, with 0; and G1U G7C G19A G22U C31G G44A, with 0.05. With G2A G5C G36U C46A, the self-cleavage came to 0.05. With G2A A6G C13A C37U G40U, the self-cleavage came out at 0.02.

In the case of G2A A25G G33U, the self-cleavage stood at 0.12. Then G1U G2U A4U U9G, with 0.05. Turning to G1U G5U A39C, the self-cleavage is 0.1. Next, G2A G5C C18G G22A: 0.07. For G2A C23U G29U C31U A39U, the self-cleavage is 0.05. In the case of G1U G5A G17U G22C C23A G33A U43C, the self-cleavage came to 0.05. Next, G2A C31G C37U: 0.13; G1U G17A A24U U32G C42U: 0.05; G1U G21U A25U G30C G40U: 0.03.

Regarding G2A G5A C10A G17A, the self-cleavage amounted to 0.05. Regarding G2A C8U A12G G21U G22C G29C C31G A39U A41U, the self-cleavage came to 0.03. As to G1U G22C G27A U34G G35U, the self-cleavage turned out to be 0.01. Regarding G2A A4C A16U G17U, the self-cleavage was 0.03. Next, G2A G5C G44U: 0.25; G1U G22U G27U: 0.3. Then G2A C8A G22A G36U C37U, with 0.04; and G2A C37U A39G C46A, with 0.12. In the case of G2A C8G C13U U34C, the self-cleavage came out at 0.15. Turning to G2A A12C C42A, the self-cleavage was determined as 0.01. Next, G2A C8U G22U A41U: 0.81. Take G1U G7A C10U: the self-cleavage came out at 0.04.

With G2A A25G A26G G35U U43G, the self-cleavage was found to be 0.1. Then G2A A11G U32G G40C, with 0.02; and G1U G19U U28G G30A, with 0.02.

On to G2A A6G C10U A12U A39U, for which the self-cleavage is 0.03.

With G2A C8A A11U C13U U38A, the self-cleavage turned out to be 0.04. For the variant G2A A26G C42G U43G, the self-cleavage is 0.06. Take G2A C18U G35C: the self-cleavage was 0.16. Next, G2A A4U G17U G22A G30C: 0.03; G1U G19U G36C: 0.06. Next, G2A A41U C42U G44C: 0.09; G2A C3U C8G C10A C13A: 0.06; G2A C3A A14U C42A: 0.67. Next, G2A C18U U20G C23A: 0.66. As to G2A A25C C46U, the self-cleavage worked out at 0.49.

On to G2A A11U A12G C15U A25C C45G, for which the self-cleavage was determined as 0.03.

Regarding G2A A4G C31U C37A A39G C42U, the self-cleavage came out at 0.14. Regarding G2A C8A C10G U32A C45A, the self-cleavage stood at 0.03.

In the case of G1U U9G C23A, the self-cleavage amounted to 0.04.

On to G2A C15G U38A, for which the self-cleavage turned out to be 0.04.

(Values after the RNAGym collection of RNA variant scans (doi:10.7554/elife.90254).)
